Where “and” joins values, the source holds several entries; their conditions need not be identical. Identical values can stand only once. Some of the results follow. Further columns of the screen follow, without active or inactive calls.

Holding throughout (test): Primary Screen for Target Class Profiling of Small Molecule Inhibitors of Methyltransferases
For assay [1], the target named is Glycine N-methyltransferase (Homo sapiens) (UniProt Q14749). Conditions: purified enzyme, MTase-Glo SAH luminescence; measured here: GNMT inhibition; at 40 µM; stronger effect = lower value. The gist of the method: (§1)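 Each enzyme was assayed with SAM and its substrate. SAH formation detected by MTase-Glo luminescence; single-point 40 uM screen[…].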
The target in assay [2] is Guanidinoacetate N-methyltransferase (Homo sapiens) (UniProt Q14353). The conditions noted are these: purified enzyme, MTase-Glo SAH luminescence; measured here: GAMT inhibition; at 40 µM; stronger effect = lower value. In outline:
as §1

For assay [3], the target named is Histamine N-methyltransferase (Homo sapiens) (UniProt P50135). The conditions noted are these: purified enzyme, MTase-Glo SAH luminescence; measured here: HNMT inhibition; at 40 µM; stronger effect = lower value. The gist of the method:
as §1

Assay [4] concerns the target Nicotinamide N-methyltransferase (Homo sapiens) (UniProt P40261). Conditions: purified enzyme, MTase-Glo SAH luminescence; measured here: NNMT inhibition; at 40 µM; stronger effect = lower value. The gist of the method:
as §1

For assay [5], the target named is Phenylethanolamine N-methyltransferase (Homo sapiens) (UniProt P11086). Conditions: purified enzyme, MTase-Glo SAH luminescence; measured here: PNMT inhibition; at 40 µM; stronger effect = lower value. In outline:
as §1
On the % scale 0 is the no-effect control and ±100 the full control effect.

For `Cc1cccc(CCNC(=O)CCc2nnc3n(Cc4ccc(F)cc4)c(=O)c4ccccc4n23)c1`, the activity change, negative = inhibition was -12.5% in assay [1]; 3.39% in assay [2]; -9.7% in assay [3]; -21.9% in assay [4]; -5.34% in assay [5].

For the compound `Cc1ccc(C2=NC3(CCN(C(=O)c4cnccn4)CC3)ON2)cc1`, the activity change, negative = inhibition in assay [1] is -3.35%; in assay [2], -2.9%; in assay [3], -1.42%; in assay [4] it was -8.91%; in assay [5], -2.15%.

With `Cc1ccc([S+](=O)([O-])NC2CCN(Cc3ccc(-c4ccsc4)cc3)C2)cc1` (stereo not drawn), the activity change, negative = inhibition in assay [1] is -10.7%; in assay [2], -8.41%; in assay [3], -8.79%; in assay [4] it was -19.7%; in assay [5] it was -26.6%.

Take `CCc1cc(NCC(c2ccc(C)o2)N2CCOCC2)n2nccc2n1` (stereo not drawn): the activity change, negative = inhibition in assay [1] is -0.619%; in assay [2], 4.33%; in assay [3], 2.26%; in assay [4] it was -4.39%; in assay [5], -8.95%.

Take `CN1CCc2nc(C(=O)N[C@@H]3C[C@@H](C(=O)N(C)C)CC[C@@H]3NC(=O)C(=O)Nc3ccc(Cl)cn3)sc2C1`: the activity change, negative = inhibition in assay [1] is -3.83%; in assay [2], -5.39%; in assay [3] it was 4.57%; in assay [4], -18.3%; in assay [5] it was 0.02%.

For the compound `COC1C(=O)N(C2CCN(C(=O)C3CC3)CC2)C12CCOCC2` (stereo not drawn), the activity change, negative = inhibition in assay [1] is 0.221%; in assay [2], 0.112%; in assay [3], -0.583%; in assay [4], 1.85%; in assay [5], 2.36%.

For `O=[S+]1([O-])NC2(CCN(Cc3ccncc3)CC2)CNc2ccccc21`, the activity change, negative = inhibition in assay [1] was -2.83%; in assay [2] it was 1.27%; in assay [3], -0.437%; in assay [4], -5.84%; in assay [5], -2.71%.

Regarding `CCCCNC(=O)c1ccc2c(=O)nc3c(-c4ccc(F)cc4)n[nH]n3c2c1`, the activity change, negative = inhibition in assay [1] is -1.6%; in assay [2], -0.599%; in assay [3] it was -2.74%; in assay [4] it was -3.95%; in assay [5], -6.75%.

With `O=C(c1cc(-c2ccccc2)nc2ccccc12)N1CCOCC(CO)C1` (stereo not drawn), the activity change, negative = inhibition is -1.83% in assay [1]; -0.217% in assay [2]; 0.119% in assay [3]; 0.559% in assay [4]; -3.33% in assay [5].

Take `NC(=O)C1CCN(c2nc3c(S(=O)(=O)c4ccc(Br)cc4)nnn3c3ccccc23)CC1`: the activity change, negative = inhibition was -22.6% in assay [1]; -1.69% in assay [2]; -7.12% in assay [3]; -14.8% in assay [4]; -9.07% in assay [5].

On to `COc1cccc(CN2C(=O)c3cc4oc(C)cc4n3CC2(C)C(=O)NC2CCCCCCC2)c1` (stereo not drawn), for which the activity change, negative = inhibition is -6.72% in assay [1]; 0.484% in assay [2]; -6.85% in assay [3]; -8.11% in assay [4]; -3.82% in assay [5].

Regarding `O=C(Nc1ccc(S(=O)(=O)Nc2nccs2)cc1)c1cc(-c2ccccc2)nc2ccccc12`, the activity change, negative = inhibition was -1.34% in assay [2], -46.7% in assay [4] and -20.2% in assay [5].

For `O=C(CCc1nnc2n(Cc3ccc(Cl)cc3)c(=O)c3ccccc3n12)N1CC=C(c2ccccc2)CC1`, the activity change, negative = inhibition in assay [1] is 2.04%; in assay [2], 0%; in assay [3], 8.14%; in assay [4], 2.23%; in assay [5], 0.731%.

On to `Cn1c(=O)c2ccc(C(=O)NC3CCCCC3)cc2n2c(SCc3ccc(Cl)cc3)nnc12`, for which the activity change, negative = inhibition in assay [1] turned out to be 4.16%; in assay [2], 1.15%; in assay [3] it was 2.37%; in assay [4], 1.47%; in assay [5], 6.15%.

On to `CC1COC2(CCN(c3nc(=O)c4cc(C(F)(F)F)cc([N+](=O)[O-])c4s3)CC2)O1` (stereo not drawn), for which the activity change, negative = inhibition in assay [1] is 7.81%; in assay [2] it was 2.14%; in assay [3] it was 4.73%; in assay [4], -14.2%; in assay [5], -9.54%.

Consider `CC(C)(C)c1ccc(C(=O)NC(Cc2c[nH]c3ccccc23)C(=O)OCC(=O)c2ccc(Cl)cc2)cc1` (stereo not drawn), for which the activity change, negative = inhibition in assay [1] is -0.237%; in assay [2], 3.26%; in assay [3], -5.22%; in assay [4] it was -6.79%; in assay [5], -4.99%.

Turning to `O=C(NCC(F)(F)F)c1ccc2nnc(-c3cncc(Cl)c3)n2c1`, the activity change, negative = inhibition was -3.99% in assay [1]; -2.49% in assay [2]; -1.62% in assay [3]; -13.9% in assay [4]; 9.51% in assay [5].

Turning to `Cc1c(Cl)cccc1N1C(=O)c2cc3sccc3n2CC1(C)C(=O)NC1CCCCCC1` (stereo not drawn), the activity change, negative = inhibition is 3.24% in assay [1]; 0% in assay [2]; 0.113% in assay [3]; 1.53% in assay [4]; -3.25% in assay [5].

Take `CCN(CC)CCCNS(=O)(=O)c1ccc2[nH]c(=O)[nH]c2c1`: the activity change, negative = inhibition in assay [1] was 8.47%; in assay [2], 0.162%; in assay [3] it was -1.66%; in assay [4], 1.4%; in assay [5], 4.34%.

Consider `O=C1C(Cl)=C(N2CCOCC2)C(=O)N1c1ccc(Cl)c(Cl)c1`, for which the activity change, negative = inhibition in assay [1] was 1.71%; in assay [2], 3.66%; in assay [3] it was 4.27%; in assay [4], -8.86%; in assay [5], -5.27%.

Regarding `COc1ccc(C(=O)Nc2c(Cl)cncc2Cl)cc1OC1CCCC1`, the activity change, negative = inhibition in assay [1] was 4.28%; in assay [2], 0.528%; in assay [3], 2.38%; in assay [4] it was -15.5%; in assay [5] it was -5.02%.

Regarding `CCOC(=O)c1ccc(NC(=O)Cn2c(=O)oc3cc(S(=O)(=O)N4CCCC4)ccc32)cc1`, the activity change, negative = inhibition is -9.44% in assay [1]; -13.5% in assay [2]; -11.8% in assay [3]; -19% in assay [4]; -32% in assay [5].

In the case of `CC(C)CCn1c(=O)c2ccc(C(=O)NCC(C)C)cc2n2c(=O)n(Cc3ccccc3)nc12`, the activity change, negative = inhibition in assay [1] came out at 7.94%; in assay [2], 2.22%; in assay [3], 9.15%; in assay [4], 7.98%; in assay [5], 9.57%.

Take `Cc1ccc(-c2cc(C(F)(F)F)nn2-c2ccc(S(N)(=O)=O)cc2)cc1`: the activity change, negative = inhibition in assay [1] was 1.11% and -0.125%; in assay [2], 3.87% and 8.16%; in assay [3], 7.18% and 6.75%; in assay [4], -14.1% and -17.6%; in assay [5], 0.5% and 6.82%.

On to `CN(C)c1ccc(CN2C(=O)c3ccc(-c4ccco4)n3CC2(C)C(=O)NCc2ccc(Cl)cc2)cc1` (stereo not drawn), for which the activity change, negative = inhibition in assay [1] is -11.2%; in assay [2], -12.3%; in assay [3] it was -1.3%; in assay [4], -19.9%; in assay [5] it was -12.4%.

Regarding `Cc1ccc(C(=O)Cn2nc3n(CC(C)C)c(=O)c4ccc(C(=O)NC5CCCCC5)cc4n3c2=O)cc1`, the activity change, negative = inhibition in assay [1] stood at 8.58%; in assay [2], 1.47%; in assay [3], 11.2%; in assay [4] it was 4.68%; in assay [5], 6.8%.

As to `COc1ccc(CCNC(=O)c2cc3n(n2)CC(C)(C(=O)NC2CCCC2)N(C)C3=O)c(OC)c1` (stereo not drawn), the activity change, negative = inhibition is 0.882% in assay [1]; 2.66% in assay [2]; 2.74% in assay [3]; 0.924% in assay [4]; -0.024% in assay [5].

As to `CC1(C(=O)NC2CCCCCC2)Cc2ccccc2C(=O)N1C1CCCCCC1` (stereo not drawn), the activity change, negative = inhibition in assay [1] was -1.84%; in assay [2], 0%; in assay [3] it was 12.4%; in assay [4], 8.87%; in assay [5] it was 2.07%.

As for `CC1CCC(NC(=O)C2(C)Cn3c(nc4ccccc43)C(=O)N2Cc2ccccc2F)CC1` (stereo not drawn), the activity change, negative = inhibition is -0.82% in assay [1]; 4.1% in assay [2]; 5.98% in assay [3]; 1.04% in assay [4]; 0.371% in assay [5].

`CCc1cc2c(cc3n2CC(C)(C(=O)NC2CCCCC2)N(c2ccc(C)cc2)C3=O)s1` (stereo not drawn): the activity change, negative = inhibition was -5.92% in assay [1]; 3.43% in assay [2]; -2.09% in assay [3]; 3.06% in assay [4]; -5.96% in assay [5].
